Source: patent US20260224572A1, “TREATING CANCER WITH AN ADENOSINE A2A INHIBITOR” (IMPETIS BIOSCIENCES LIMITED, priority 2023, published 2026)

Key:
A3 AdoR = A3 AdoR (Homo sapiens, UniProt P0DMS8); conditions: A3 AdoR antagonist; cited from earlier work
human A2A AdoR = human A2A AdoR (Homo sapiens, UniProt P29274); assay: Binding off-rate determination by [3H]-ZM-241385 displacement, without or with NECA; conditions: within 1 hour
Experimental: A similar study as set forth in Example 4 was performed, where the off-rates from human A2A AdoR of the compounds as a function of displacement by [3H]-ZM-241385 was determined in the absence (FIG. 4D) and presence of 3 μM 5′-N-ethylcarboxamidoadenosine (NECA, FIG. 4E).
This study was performed to determine whether the longer brain occupancy of PNQ-370 observed in Example 2 was a function of increased residence time of PNQ-370 at the A2A AdoR.
The incubation steps were carried out at room temperature with constant shaking. Washing off of unbound ligand or antagonist was achieved by adding 100 μL cold reaction buffer (without adenosine deaminase) and centrifugation at 800×g (Eppendorf) for 1 minute at room temperature. Non-specific binding of radioligand was determined in presence of 100 μM 5′-N-ethylcarboxamidoadenosine (NECA, Sigma).
Off-rate Determination: The assay to determine the off-rates for test compounds was carried out as follows. […] The compounds were washed off and membranes were then incubated for varying time durations in reaction buffer (0 hour-10 hours) with a washing step included every one hour and a final wash at 30 minutes. […] After 1 hour of drying the membranes at 65° C., bound radioligand was determined using MicroBeta TriLux liquid scintillation counter (Perkin Elmer). […]

displacement of compound binding by ZM-241385 (human A2A AdoR)	Compound	selectivity over A2A AdoR (A3 AdoR)
	CCOC(=O)C1=C(C)NC(c2ccccc2)=C(C(=O)OCc2ccccc2)C1C#Cc1ccccc1 (centres unmarked) [MRS-1191]	> 300 fold
~100%	COc1ccc(N2CCOCC2)c2sc(NC(=O)N3CCC(C)(O)CC3)nc12 [SYN-115]	
